Reference: PubChem BioAssay AID1159614 (National Center for Advancing Translational Sciences (NCATS), 2016)
The whole screen tested about 45,000 compounds, of which about 65 (0.1%) were called active. Calls come from the whole dose curve; as a rule, active = well fitted activation curve with a large enough effect; inconclusive = small, poorly fitted or top-dose-only effect; inactive = no such curve, though single readings can be large or run the other way. Some of the results follow.

Molecular target: Galactocerebrosidase (Homo sapiens) (UniProt P54803)
Chain of UniProt P54803 (P54803 whole entry, looked up): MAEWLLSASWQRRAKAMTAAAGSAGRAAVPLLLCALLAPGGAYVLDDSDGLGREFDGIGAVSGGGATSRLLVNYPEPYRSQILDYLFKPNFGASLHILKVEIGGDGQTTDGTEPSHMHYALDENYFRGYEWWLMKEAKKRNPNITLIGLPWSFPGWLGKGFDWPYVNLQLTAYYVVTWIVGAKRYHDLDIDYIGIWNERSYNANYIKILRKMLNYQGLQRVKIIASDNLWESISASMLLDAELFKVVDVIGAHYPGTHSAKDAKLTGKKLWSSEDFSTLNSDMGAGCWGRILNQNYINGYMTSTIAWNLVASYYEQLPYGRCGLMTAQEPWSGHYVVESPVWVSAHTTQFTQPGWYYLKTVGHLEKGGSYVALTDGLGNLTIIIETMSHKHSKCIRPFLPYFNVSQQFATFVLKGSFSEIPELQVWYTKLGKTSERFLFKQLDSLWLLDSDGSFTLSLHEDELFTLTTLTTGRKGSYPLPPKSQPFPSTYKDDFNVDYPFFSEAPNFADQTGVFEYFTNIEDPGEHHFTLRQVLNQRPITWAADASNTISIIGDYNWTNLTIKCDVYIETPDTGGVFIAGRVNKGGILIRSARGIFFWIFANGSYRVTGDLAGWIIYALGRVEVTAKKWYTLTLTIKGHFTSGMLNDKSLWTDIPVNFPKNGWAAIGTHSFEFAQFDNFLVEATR
Assay: A Novel Cell-Based Assay to Identify Small Molecules for B -Galactocerebrosidase; note: 0% is about no effect; nearly all actives have a fitted effect of over 65% in size
Details: 145M-Twi-hGALC-G270D cells (Twitcher mouse brain line with human GALC G270D), HMU-beta-Gal fluorescence, 48 h; series mostly up to 57.5 µM; activation: at the top concentration
Summary of the method: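 Fluorogenic HMU-b-Gal hydrolysis (0.1 mM final, pH 5.2 citrate-phosphate with 1 mg/mL sodium taurocholate; carbonate stop buffer) measures mutant GALC activity after compound treatment of live 145M-Twi Twitcher brain cells stably carrying human GALC-G270D, with wild-type GALC line alongside; activation sought.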

activation, inactive:
COc1ccc2c(c1)c(=O)c(C(=O)c1ccc(F)cc1)cn2CC(=O)Nc1ccc2c(c1)OCCO2 -8.27%, COc1ccc(-c2cn3cccnc3n2)cc1NC(=O)c1ccccc1C(F)(F)F -7.77%, Cc1cc2nn(-c3ccc(F)cc3)nc2cc1NC(=O)c1ccc(C(C)(C)C)cc1 0.528%, COc1cc(CN(C(=O)c2ccccc2)c2ccccn2)cc(OC)c1OC -10.2%, COc1cccc(CNC(=O)Nc2cn(CC(C)C)c(=O)c3ccccc23)c1 -20.4%, COc1ccc(-c2oc3ncn4nc(-c5ccccc5OC)nc4c3c2-c2ccc(OC)cc2)cc1 -11.5%, COc1cc(OC)cc(-n2c(=O)c3sccc3n(Cc3cc(=O)n4c(C)cccc4n3)c2=O)c1 -13.4%, Cc1ccc2c(CC(=O)Nc3nnc(C(C)C)s3)coc2c1C 3.34%, OCCN1CCN(c2ncnc3c2cnn3-c2cccc(Cl)c2)CC1 -23.9%, Cc1nnc2c3ccccc3nc(Nc3ccc(F)cc3Cl)n12 -14.7%, CCOC(=O)c1cc(-c2ccc(F)cc2)n(CCC(=O)Nc2nc3cc(C)c(C)cc3s2)c1C -12.5%, CCOc1ccc(-n2c(-c3ccc(Br)cc3)cc3c2CC(C)(C)CC3=O)cc1 -19.9%, COc1ccc(OCc2ccc(-c3nc(C#N)c(NCc4ccc(F)cc4)o3)o2)cc1 -14.4%, Cc1nc(N2CCCC2)ncc1C(=O)Nc1ccc(OC(F)(F)F)cc1 -15%, COc1ccc(CCNc2ncnc3c2cnn3-c2ccc(F)cc2)cc1 -20.5%, Cc1ccc(Cl)cc1NC(=O)Cn1nnc2sc3c(c2c1=O)CCC(C(C)(C)C)C3 (configuration not stated) -7.9%, Cc1cccc(N(C)S(=O)(=O)c2nnc(NC(=O)C(C)(C)C)s2)c1 -1.31%, COc1ccc(N(Cc2cc3cc(OC)ccc3[nH]c2=O)C(=O)c2cccc(Cl)c2)cc1 -3.58%, COc1ccc(OC)c(CNC(=O)c2cc3c(=O)oc4ccc(C)cc4c3s2)c1 -5.64%, O=C(c1ccc2c(c1)N(Cc1ccccc1F)C(=O)c1ccccc1S2=O)N1CCC(Cc2ccccc2)CC1 (configuration not stated) 0.0237%, Brc1ccc(CN2CCc3nc(Nc4ccccc4)ncc3C2)s1 5.22%, Cn1c(SCC(=O)N2CCOCC2)ncc(C(=O)Nc2ccc(F)cc2)c1=O -10.3%, CCc1ccc(C2c3c(-c4cc(C)ccc4O)n[nH]c3C(=O)N2CCO)cc1 (configuration not stated) -12.4%, CCc1ccc(NCc2cc3cc4c(cc3n(CC(=O)Nc3ccc(OC)cc3)c2=O)OCO4)cc1 -10.8%, COc1ccc(NC(=O)CCCS(=O)(=O)c2nc(-c3ccccc3OC)cc(C(F)(F)F)n2)c(OC)c1 -0.842%, CCCSc1nc2sc3c(c2c(=O)n1-c1ccc(C)cc1)CCCC3 -6.78%, Cn1c(=O)c2c(ncn2CCO)n(C)c1=O -0.14%, CCOC(=O)c1c(S(=O)(=O)NCC(=O)Nc2cccc(SC)c2)c(C)n(C)c1C -6.08%, Cc1ccc(CNC(=O)C2CCCN(c3nc4ccccc4n4cccc34)C2)cc1 (configuration not stated) -31%, CC1CCN(CCCNC(=O)CN2C(=O)CSc3ccc(S(=O)(=O)N4CCCCC4)cc32)CC1 -11%, COc1ccc(C(C)NC(=O)CN(c2cc(OC)ccc2OC)S(=O)(=O)c2ccccc2)cc1 (configuration not stated) -9.98%, COc1cccc(-n2ccnc2SCC(=O)Nc2cccc3ccccc23)c1 -13.5%, O=C(NCc1ccccc1Cl)c1ccc2c(c1)ncn2-c1cccc(F)c1 -9.99%, COc1ccc(-n2c(CC3C(=O)Nc4ccc(C)cc43)nc3ccccc3c2=O)cc1 (configuration not stated) -17.5%, Brc1cccc(-c2nn(-c3ccccc3)c3c2cnc2cc4c(cc23)OCO4)c1 -5.86%, COCCn1c(CNC(=O)c2ccccc2C)nc2cccnc21 -4.48%, Cc1ccc(C)c(CN2CCC(CNC(=O)C(CC(C)C)N3Cc4ccccc4C3=O)CC2)c1 (configuration not stated) -14.4%, COc1ccc(NC(=O)Nc2cccc(-c3noc(C)n3)c2)cc1 2.93%, CCc1cccc(C)c1NC(=O)C1CCN(S(=O)(=O)c2cc(Br)cc3c2N(C(C)=O)CC3)CC1 -16%, O=C(c1cccs1)N1CCCc2cc(NS(=O)(=O)c3ccc(Br)cc3)ccc21 -8.79%, COc1cc(-c2noc(-c3cc4cccc(C)c4oc3=O)n2)cc(OC)c1OC -7.08%, CCCSC1=NC2(CCN(C(=O)NC3CCCCC3)CC2)N=C1c1ccc(OC)cc1 -15.5%, O=c1c2c3c(sc2nnn1CCCCOc1ccc(Cl)cc1)CCCC3 -16%, N#C/C(=C/c1ccc(O)cc1)c1nc(-c2ccc(-c3ccccc3)cc2)cs1 -9%, Cc1nc(-c2cccc(F)c2)sc1CCNC(=O)Cc1ccc(F)cc1 1.7%, O=C(Nc1ccc(F)cc1)c1nc(SCc2ccccc2F)ncc1Cl 2.78%, COc1ccc(-c2nsc(NC(=O)c3oc4ccc(Cl)cc4c3C)n2)cc1 -13%, CCOc1ccccc1-n1c(N)c(C(=O)OC)c2nc3ccccc3nc21 17.2%, Cc1cc(NC(=O)c2cnn(-c3ccccc3)c2-n2cccc2)ccc1Br -11.6%, Cn1c(C(=O)NCc2ccccc2Cl)cc2sc(Cl)cc21 -4.44%, Cc1ccc(OCCn2c(CNc3ccccc3C)nc3ccccc32)cc1 -7.23%, COc1cc(NS(=O)(=O)c2cc(Br)cc3c2N(C(C)=O)C(C)C3)cc(OC)c1 (configuration not stated) 5.35%, O=C(NC1CCCCC1)c1ccc2c(c1)N(Cc1ccc(F)cc1)C(=O)c1ccccc1S2(=O)=O 25.1%, N#CC1=C(N)N(c2ccc(Cl)cc2)C2=C(C(=O)CCC2)C1c1cc(CN2CCOCC2)cs1 (configuration not stated) -7.87%, COc1cccc(CNC(=O)Cn2c(=O)cc(C)c3c(C)nn(C)c32)c1OC -11.5%, Cc1cccc(N(C)C(=O)C2CCC(CNS(=O)(=O)c3cccc4nsnc34)CC2)c1 (configuration not stated) -20.3%, CCc1cccc(NC(=O)Cn2c(=O)n(CC3CCC(C(=O)NC)CC3)c(=O)c3sccc32)c1 (configuration not stated) -11.6%, COc1cccc(CNC(=O)CN(c2ccc(C)cc2)S(=O)(=O)N(C)C)c1OC -11.7%, COc1cccc(-c2nc3c(C#N)c[nH]n3c2NC2CCCCC2)c1 -11.8%, COc1ccc(-c2csc3ncnc(Nc4ccc(OC)cc4OC)c23)cc1 -20.3%, Cc1ccccc1OCC(=O)Nc1c(C)ccc2nsnc12 -6.86%, CC1CCN(S(=O)(=O)c2ccc3c(ccn3CC(=O)NCc3ccc(N(C)C)cc3)c2)CC1 -0.802%, CC(C)c1ccc(S(=O)(=O)c2nnn3c2nc(N2CCOCC2)c2sccc23)cc1 -18.6%, CCOC(=O)N1CCc2c(sc3c2c(=O)n(-c2ccc(CC)cc2)c(=O)n3CC(=O)c2ccccc2)C1 -1.09%, Cc1ccc(NC(=O)C2CCN(C(=O)c3cnn(-c4ccccc4)c3-n3cccc3)CC2)cc1 -9.92%, COc1ccc(NS(=O)(=O)c2ccc3c(c2)CCCN3C(=O)C2CCC2)cc1OC -1.8%, COc1ccc(Cl)cc1NC(=O)Cn1nc(C(F)(F)F)c2c1CCC2 -13.3%, COc1ccc(CCC(=O)NCc2nc3cccnc3n2Cc2cccc(OC)c2)cc1 -7.79%, CCCCc1nn2c(=O)cc(COC(=O)C(C)Oc3ccccc3)nc2s1 (configuration not stated) -9.55%, CCC1CN(C(=O)N2CCC(C(=O)N3CCN(c4ccc(F)cc4)CC3)CC2)c2ccccc2O1 (configuration not stated) -10.2%, COc1nc(N)nc2c1ncn2[C@@H]1O[C@H](CO)[C@@H](O)[C@@H]1O 0.531%, Cc1c(C(=O)Nc2ccccc2Br)oc2ccc(S(=O)(=O)N3CCOCC3)cc12 -11.9%, O=C(NCc1ccccc1Cl)c1ccc(NC(=O)c2nsc3ccccc23)cc1 -4.95%, Cc1ccccc1Cn1c(=O)n(CCCCC(=O)NCc2ccccc2Cl)c(=O)c2ccccc21 9.01%, COc1ccccc1CNC(=O)C1CCN(Cc2cc3ccccc3n2Cc2cccc(C)c2)CC1 -1.94%, COc1ccc2c(c1)CC(NC(=O)Nc1ccc(NC(C)=O)cc1)CO2 (configuration not stated) 9.73%, CC(C)CNC(=O)c1c(-c2ccccc2)c(-c2ccccc2)nn(C)c1=O -7.78%, CCOc1ccc(NC(=O)C2CCN(S(=O)(=O)c3ccc4c(c3)oc(=O)n4C)CC2)cc1 -4.45%, CCOc1cc(C)c(C(C)C)cc1S(=O)(=O)n1ccnc1CC -5.04%, CCOc1ccc2nc(N3CCC(C(=O)Nc4ccc(Br)cc4F)CC3)sc2c1 -29.1%, O=C(CSc1nnc(-c2ccncc2)n1-c1ccccc1)Nc1ccc(Br)cc1 -8.53%, COc1ccc2c(c1)c1c(c(=O)n(Cc3ccccc3)c(=O)n1Cc1ccccc1)n2C -2.83%, CCSc1ncc(Cl)c(C(=O)N(Cc2ccc(C(C)(C)C)cc2)C2CCS(=O)(=O)C2)n1 (configuration not stated) -9.42%, CCCNC(=O)c1c(NC(=O)c2ccc(C)cc2)sc2c1CCCCC2 -11.9%, CC(=O)N1CCOc2cc(S(=O)(=O)Nc3cc(C(F)(F)F)ccc3Cl)c(C)cc21 -4.25%, Cc1ccc(-c2noc(-c3nnn(CC(=O)Nc4cccc(C(F)(F)F)c4)c3N)n2)cc1 -10.7%, O=C(CCCN1CCC(O)(c2cccc(C(F)(F)F)c2)CC1)c1ccc(F)cc1 -9.46%, CCOC(=O)c1c(C)oc2nc(C)nc(NCCCN3CCN(c4cc(Cl)ccc4C)CC3)c12 -18%, CCOC(=O)c1cccc(NC(=O)Nc2ccc3c(c2)N(C)C(=O)c2ccccc2S3)c1 -15.9%, Cc1ccc(C(=O)NCC(=O)OCc2cc(=O)n3nc(C4CC4)sc3n2)cc1 -12.2%, O=C(NCCCN1CCN(c2ccccc2F)CC1)C1COc2ccccc2C1 (configuration not stated) -12.5%, O=C(Nc1cccc(-c2nc3ccccc3[nH]2)c1)c1c(F)cccc1F 7.76%, O=C(O)c1cccnc1SCc1cccc(Cl)c1 -16.7%, COc1ccc(S(=O)(=O)Cc2ccc(C(=O)N3CCN(c4cc(C)ccc4C)CC3)o2)cc1 -6.68%, COc1ccc(CNC(=O)C2CCN(S(=O)(=O)c3c(C)noc3/C=C/c3cccs3)CC2)cc1 -14.7%, Cc1ccccc1NC(=O)CCOc1ccccc1 -12.3%, COc1cc2ccccc2cc1C(=O)Nc1cccc(-c2nc3ccccc3o2)c1 -6.16%
